# ± gives the standard deviation of the averaged measurements. The list shows a part of the results.
# Tested on: PfAP2-EXP AP2 domain (GST-tagged)
# Experiment: gcPBM binding intensity (ln(normalized median fluorescence intensity)); higher = stronger DNA binding
# In short: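 For binding intensity, the highest Masliner-normalised natural-log median intensity across replicate spots of either probe orientation was taken. Protein bound to the array was stained with Alexa488 anti-GST antibody and scanned at 488 nm. The protein, GST-tagged P. falciparum DNA-binding domains from E. coli at about 25 μg on average, had been applied for 1 h to an Agilent 4 × 180k array of primer-extended double-stranded 36-bp intergenic genomic probes and negative controls.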
row,Sequence,gcPBM binding intensity (ln)
1,TTCTAAATTAATAATACACACTTGCTAAAATCATTA [CACACA_site5733],8.13 ± 0.26
2,ATATAAATAACGTGTACACACATATGTATTTATATA [CACACA_site6520],8.72 ± 0.3
3,TTCTTATATTGTACAGTACACACCTTTATAATGTTA [CACACA_site7953],9.04 ± 0.25
4,ATTCTCCATGTTTGATGTACTCATATGACGACGGAG [XGTACX_site4923],8.79 ± 0.5
5,TTTTTATGATTATACTTATATAATTTCATGATTGAA [CACACA_negctrl_site228],8.21 ± 0.38
6,AATATTTCTATATGAACATGCAATGTATCTTTTTAT [TGCATGCA_site738],8.37 ± 0.2
7,AATACTTACCAAAATACACACACACCCAAAATATAT [CACACA_site8559],8.83 ± 0.48
8,ATTTTTATTTTATATACACACAATAATACTAGAATA [CACACA_site7810],8.33 ± 0.31
9,ATTTCATATGGTCAACGTACTCATGCATCCCTCCTT [XGTACX_site437],9.13 ± 0.57
10,ATATATATCTACATATGTACATATATACATTACACA [XGTACX_site7210],8.68 ± 0.38
11,AGATATATAAAATATACACACAGTAATATTTATATA [CACACA_site6767],8.09 ± 0.39
12,TCAAAAAAGACACACCGTACATACTATTTGGACAGG [XGTACX_site7699],8.51 ± 0.36
13,AATTATATTTGAAATACACACATAAAAACCATATAG [CACACA_site7598],8.89 ± 0.51
14,ATATATATATATATATGTACATATTTACATTTTGTA [XGTACX_site3529],10.1 ± 0.38
15,AATAAAGGAGCCTATGAACACACACCGGTACATATA [CACACA_site9352],8.77 ± 0.3
16,TATACACATTCGCGTTGTACAAAAAAAAAAAAAAAG [XGTACX_site2880],8.53 ± 0.19
17,ATAATAATAGTAATATGTACATATATATATATATAT [XGTACX_site7437],10.2 ± 0.53
18,ATAAAAAAAAGAAAAACACACACATATATATATATA [CACACA_site8243],10.2 ± 0.16
19,AAGATGAACCTTTACACATGCAACAAAAAATATACA [TGCATGCA_site166],9.2 ± 0.3
20,ATCAACATTATGTTTAGTACTTAGTGAATTGTTAAT [XGTACX_site4913],8.6 ± 0.4
21,TTTTTTTTTTTTAGAGTACACACTTTTTTACATTTA [CACACA_site3836],8.51 ± 0.44
22,GTTGAAAATACAGAACGTACACGTTTGCCATATTGT [XGTACX_site2254],8.44 ± 0.37

row,Sequence,gcPBM binding intensity (ln)
1,TATGAAATGCTCCAATCACACATGAATGTAATATAT [CACACA_site5458],8.21 ± 0.42
2,ATATGATTTATAAAGTGTACCTTATTATAAGAAACA [XGTACX_site7914],8.44 ± 0.35
3,ACTTTTATTATTTATATACACACTTGCTGAAATGTT [CACACA_site3637],9.14 ± 0.45
4,AGTTATAAAATATTTGCATGTAAATATATTATCTAT [TGCATGCA_site1015],8.96 ± 0.2
5,TAATATATTATGAGGGGTACATAATATGGTTTATTG [XGTACX_site8301],8.76 ± 0.48
6,ATATTTATATTTATGTGTACATATGAAATAATTATT [XGTACX_site7765],8.53 ± 0.28
7,AATGTATTCTCTCATGCACACTTTCTTTAAGGGACC [CACACA_site5245],8.68 ± 0.26
8,CTAAGAAGTATTTACACACCAACAAGGCGAAAAAAA [CACACA_site2945],8.45 ± 0.28
9,ATATCTTATATCTTCACACATACACAATAAATACAT [CACACA_site5028],8.74 ± 0.42
10,TAAGATGATATAGACTGTACATATTGAACTTACAAG [XGTACX_site4290],8.53 ± 0.37
11,GAAGAAAAAGAAAAAAGTACATATATTATATTATAA [XGTACX_site7870],8.43 ± 0.42
12,TAATATATTAATTTTTGTACTTAATTATATGTTTTT [XGTACX_site5654],8.31 ± 0.38
13,GTTTTTAAATATGCCATACACACTACTATATAATAA [CACACA_site1927],8.7 ± 0.33
14,ATTCATATTAAATATATATATATATATATATATATA [CACACA_negctrl_site484],10 ± 0.43
15,ACCATGATAAATGTATTAAATGTATCATAACCTATG [CACACA_negctrl_site513],8.26 ± 0.38
16,AACGAAAGAAAAAAAGCACACACAGTTTTGAGCAAT [CACACA_site8658],8.71 ± 0.47
17,ATCCGTGTCTGAAATACACACATGATAATGTGAATG [CACACA_site8210],8.34 ± 0.34
18,ATGGAAACAAGCATCACACATATAAATATATATATA [CACACA_site4979],9.725 ± 0.064
19,TTCTTTTTGAAATATTAACACACATTTTGTTAATTA [CACACA_site9337],8.44 ± 0.42
20,CAAACATTTTAATGTACACACACCCACAGACAAACA [CACACA_site5522],8.94 ± 0.46
21,AGGAATTTATAAAATTGTACTTTTAATTACCTACAG [XGTACX_site3153],8.28 ± 0.33
22,AATTTTCTACAAATGTGTACTAAATAAAATATTACT [XGTACX_site7175],8.39 ± 0.22

row,Sequence,gcPBM binding intensity (ln)
1,AAAAAAGAAAAAAGGACACACATAAATATACACCCG [CACACA_site5590],8.74 ± 0.63
2,ATGTGTGTATTTTATAGTACAGTTACAAGCATTTTT [XGTACX_site6351],8.57 ± 0.35
3,ACAATGAGGATATATACACACATACATTAAAAAAAT [CACACA_site6955],8.78 ± 0.38
4,TTTTTCTGTTCTTTTTGTACTTAAATATATTTATTT [XGTACX_site5658],9.03 ± 0.42
5,CACAAAAATAAACACACACACATATATATATATATA [CACACA_site4704],10.2 ± 0.35
6,AGAATATAATTTTTATGTACATATATTAAATATATT [XGTACX_site8521],8.49 ± 0.34
7,AAATAAGAGAAAATATGTACATACATATATTTATAT [XGTACX_site6210],8.51 ± 0.37
8,TCATAAAATATGTTTTGTACATAAAATTAAACAAGT [XGTACX_site1763],8.37 ± 0.2
9,AATACGTTTATATATTGTACGTTATATATATATATA [XGTACX_site7452],9.91 ± 0.33
10,ATATAATTTGTTATACTAACTTTTTAATTATTGATA [GTGCAC_negctrl_site443],8.28 ± 0.36
11,AAATATAAATAAAGATGTACATTATCTATATGTGAT [XGTACX_site4863],8.52 ± 0.28
12,TAAGTTCGAATTACTTAAATATTGATTTTTTTAAAA [TGCATGCA_negctrl_site114],7.96 ± 0.52
13,AAGAAAAGCAAACAAGTGCATAATAACAAAAAAAAT [GTGCAC_site9725],9.13 ± 0.46
14,TATTTATTTATAAACACACAAATATTTTTATTTATA [CACACA_site6889],8.05 ± 0.37
15,GTTGGTAGATTTATTTGTACATATGTATCATATTAT [XGTACX_site7135],8.82 ± 0.36
16,AAAAATTTATTTTGTTTTTTAAGATTTTTTTTTTTT [CACACA_negctrl_site1210],7.91 ± 0.42
17,ATTCTAAATATCAGTGCACACATTTCTACGCAAAGT [CACACA_site474],8.925 ± 0.049
18,ACATACATATATATACGTACATATATATTTATATAT [XGTACX_site5799],8.75 ± 0.34
19,TAATTACAAAAACATACACACAAAAAAAAAAAAAAA [CACACA_site3782],8.14 ± 0.55
20,AGCAAATACAAACACACACACACATATACATATATA [CACACA_site3497],8.6 ± 0.52
21,TGTATATTATAAGATAGTACATATATATAATATATA [XGTACX_site1297],8.22 ± 0.11
22,TTCATTTACCCTTATTAACACACAAAATATAATACG [CACACA_site8821],8.57 ± 0.44

row,Sequence,gcPBM binding intensity (ln)
1,ATCTTATATATACGTTGTACTACAGGATATGTCATA [XGTACX_site5734],8.73 ± 0.4
2,ATAAATATCATATATATACACACGTAATACATAATA [CACACA_site4001],8.4 ± 0.44
3,TCTTACAAAAAAAAAAAAAAATAAAATAAAATATAT [CACACA_negctrl_site1575],8.16 ± 0.44
4,AAGGAGATAATTTATTGTACATATAATAAATGAACA [XGTACX_site6252],8.44 ± 0.4
5,TTAATATTATGTTAAAGTACTTTATATATATATAAT [XGTACX_site2646],8.48 ± 0.45
6,ATATTAAGAATATATACACACATAAGTATTGTATAT [CACACA_site6110],8.05 ± 0.38
7,TATTCGTGCAATAGTAGTACACTTATAAATTATTCT [XGTACX_site4899],8.62 ± 0.23
8,ATAAAATAAAATAAATGTACACGAAAAAAAATATTT [XGTACX_site3747],9.15 ± 0.59
9,AGTGAGAAATACATAATAATACATTATGTGCATATT [XGTACX_negctrl_site247],8.52 ± 0.26
10,TTACTTGTTTATTTTATTTTTTTTTTTTTTTTGTTA [TGCATGCA_negctrl_site266],8.31 ± 0.73
11,GTACACATATATATATATATATATATATATATATTA [CACACA_negctrl_site1580],8.89 ± 0.14
12,AAGAATATTTTTTTCTGTACATATAATTTATATACG [XGTACX_site5801],8.33 ± 0.34
13,TATGTACAAATATGTACACACACACCGATATATATA [CACACA_site4487],8.76 ± 0.18
14,TATAATTTTCTTAGTAGTACATTTTAAATCTACTAC [XGTACX_site2621],8.46 ± 0.34
15,TGTATCCACATATGTACACACATATATCTGTATATG [CACACA_site5668],8.86 ± 0.42
16,ACTAATAACAAAAGCTTGCACTTTTTTTTTCCTAAT,8.52 ± 0.33
17,ATATAAGATTACAAAAATTATGTGTAAATATTTAAT [XGTACX_negctrl_site448],8.46 ± 0.33
18,AAAAAAAAAAAAAAAAGTACAAAAATTATATTAAGA [XGTACX_site4255],8.41 ± 0.29
19,AATTATATATAACGTAGTACATATTATAAACCACGT [XGTACX_site8816],8.52 ± 0.23
20,ACCTATATAAATTATACACACAAATATAAATATATA [CACACA_site2843],8.3 ± 0.36
21,ATATTCCTTTAATATTGTACTATTTTTTTCCTTATA [XGTACX_site8659],8.77 ± 0.43
22,TATAATAATAATGATAGTACGTATGAGTTCAAGAAA [XGTACX_site4918],8.63 ± 0.42

# Reference: the supplement of paper PMC11417369
